Laboratory results as given in the antibiotic and cytotoxicity screens of Wong et al. (2023).
The list shows a part of the results.

Legend:
[1] = test system: HSkMC (human skeletal muscle cells); test: cytotoxicity call (relative viability < 0.9); settings: 10 µM
[2] = test system: HepG2; test: cytotoxicity call (relative viability < 0.9); settings: 10 µM
[3] = test system: S. aureus RN4220; test: growth inhibition call (relative growth <= 0.2); settings: 50 µM

Compound | cytotoxicity call [1] | cytotoxicity call [2] | growth inhibition call [3]
c1cc2c(cc1CN1CCNCC1)OCO2 | inactive | inactive | inactive
C[C@@H]1NC[C@@H]2CCCN2C1=O | inactive | inactive | inactive
Oc1cc(Cl)ccc1Oc1ccc(Cl)cc1Cl | active | active | inactive
Cc1ccc(N2CCO[C@@H]3CNCC[C@H]3C2)nn1 | inactive | inactive | inactive
COc1cccc2c1cc([N+](=O)[O-])c1c(C(=O)O)cc3c(c12)OCO3 | inactive | inactive | inactive
C=C(C)c1cc2cc(C(C)=O)c(O)cc2o1 | inactive | active | inactive
O=C1[O][SbH]23[O]C(=O)C([O]2)C2[O][SbH]4([O]C(=O)C([O]4)C1[O]3)[O]C2=O | inactive | active | inactive
CCOCC(=O)N1CC[C@H]2CNC[C@H]21 | inactive | inactive | inactive
CCN1C[C@]2(OC(=O)c3ccccc3NC(C)=O)CC[C@H](OC)[C@@]34[C@@H]2C[C@@H]([C@@H]13)[C@@]1(O)C[C@H](OC)[C@H]2C[C@@H]4[C@]1(O)[C@H]2OC | inactive | inactive | inactive
C=C(C)[C@@H]1[C@H]2OC(=O)[C@@H]1[C@]1(O)C[C@H]3O[C@]34C(=O)O[C@H]2[C@]14C | inactive | inactive | inactive
O=S(=O)(O)O.Oc1cccc2cccnc12 | inactive | active | inactive
Oc1cc2c(cc1O)CNCC2 | inactive | inactive | inactive
CC[C@@H](C)C(=O)O[C@H]1[C@H](O)[C@H]2[C@@H](CN3C[C@@H](C)CC[C@@H]3[C@@]2(C)O)[C@H]2C[C@]34O[C@]5(O)[C@@H](OC(=O)[C@@](C)(O)CC)CC[C@@]3(C)[C@@H]5[C@@H](OC(C)=O)[C@@H](OC(C)=O)[C@@H]4[C@@]21O | inactive | inactive | inactive
C[C@@H](N)C(=O)N[C@@H](CO)C(=O)N[C@H](C(=O)N[C@H](C(=O)N[C@H](C(=O)N[C@@H](CC(N)=O)C(=O)N[C@@H](Cc1ccc(O)cc1)C(=O)N[C@H](C(N)=O)[C@@H](C)O)[C@@H](C)O)[C@@H](C)O)[C@@H](C)O | inactive | inactive | inactive
C=CCN1C(=O)NC(=O)/C(=C/c2ccco2)C1=O | active | inactive | inactive
O=C(CBr)N1CC([N+](=O)[O-])([N+](=O)[O-])C1 | inactive | inactive | inactive
O=C(NC(=O)c1c(F)cccc1F)Nc1cc(Cl)c(OC(F)(F)C(F)C(F)(F)F)cc1Cl (stereo unspecified) | inactive | active | inactive
COc1cc2c(cc1OC)C1CC(=O)C(CC(C)C)CN1CC2 (stereo unspecified) | inactive | active | inactive
NC[C@@H](O)c1ccccc1 | inactive | inactive | inactive
[N-]=[N+]=Nc1ccccc1C[C@@]1(C(=O)NCc2ccccc2)N=C(c2ccc(OCCCO)cc2)O[C@@H]1c1ccccc1N=[N+]=[N-] | inactive | inactive | inactive
CN1C(=O)NC(=O)/C(=C\c2ccc(O)cc2)C1=O | inactive | inactive | inactive
C[C@@H]1C(=O)O[C@H]2[C@H](O)[C@@]34[C@@H]5OC(=O)[C@@]3(O[C@@H]3OC(=O)[C@H](O)[C@@]34[C@H](C(C)(C)C)[C@H]5O)[C@@]12O | inactive | inactive | inactive
CC(C)=CCCC1(C)C=Cc2c(O)c3c(c(CC=C(C)C)c2O1)OC12C(=CC4CC1C(C)(C)OC2(CC=C(C)C(=O)O)C4=O)C3=O (stereo unspecified) | active | active | inactive
Cc1noc(C)c1C(=O)N1C[C@@H]2CCN[C@@H]2C1 | inactive | inactive | inactive
CC(C)Oc1ncccc1CN | inactive | inactive | inactive
C=CCOC(=O)[C@@H]1[C@H](C(=O)OC)N(C)[C@@H](c2ccccc2)[C@]12C(=O)Nc1ccc(I)cc12 | inactive | inactive | inactive

Compound | cytotoxicity call [1] | cytotoxicity call [2] | growth inhibition call [3]
Nc1ccc(N2CCNCC2)cc1 | inactive | inactive | inactive
COc1cc2c(cc1O)CCNC2C (stereo unspecified) | inactive | inactive | inactive
COC(=O)C[C@H]1CC[C@H]2NC[C@H](O)COC[C@@H]2O1 | inactive | inactive | inactive
COCC(=O)N1[C@@H]2Cn3c(ccc(C4=CCCC4)c3=O)[C@H]1[C@@H](C(=O)OC)[C@@H]2CO | inactive | inactive | inactive
CNC(=O)[C@H]1Cn2ccnc2C2(CCNCC2)O1 | inactive | inactive | inactive
O=C1[O][SbH]23[O]C(=O)[C@H]([O]2)[C@H]2[O][SbH]4([O]C(=O)[C@H]([O]4)[C@H]1[O]3)[O]C2=O | active | active | active
Cc1cc2c(C(C)C)c(O)c(O)c(C=O)c2c(O)c1-c1c(C)cc2c(C(C)C)c(O)c(O)c(C=O)c2c1O | active | active | inactive
Cc1ccc(C=C2C(=O)NC(=O)NC2=O)cc1 | inactive | inactive | inactive
COC(=O)[C@H]1[C@H]2CO[C@@H]1CN2 | inactive | inactive | inactive
Cc1ccc2[nH]cc(C[C@@H](C)N)c2c1 | inactive | inactive | inactive
CC(=O)OC1C2CCC3C(C)(O)C4CC(O)C(C)(C)C4(O)C(O)CC13CC2(C)O (stereo unspecified) | inactive | inactive | inactive
CCCCCCCCCCCCCCCC[n+]1ccccc1 | active | active | inactive
CC(=O)NC1CCSC1=O (stereo unspecified) | inactive | inactive | inactive
Clc1nc(N2CCNCC2)c2[nH]cnc2n1 | inactive | inactive | inactive
CC(C)(C)[C@]1(O)C[C@@H]2OC(=O)C[C@]23C(=O)O[C@@H]2OC(=O)[C@H](O)[C@]231 | inactive | inactive | inactive
CC(=O)[O][Hg][c]1ccccc1 | active | active | inactive
C=CC=CCC1=C(C)C(OC(=O)C2C(C=C(C)C)C2(C)C)CC1=O (stereo unspecified) | inactive | inactive | inactive
COc1ccc(Cc2nccc3cc(OC)c(OC)cc23)cc1OC.Cl | inactive | active | inactive
N[C@H](CO)Cc1ccccc1 | inactive | inactive | inactive
NCCc1ccc(C(=O)c2ccccc2)cc1 | inactive | inactive | inactive
COc1cc(C2c3cc4c(cc3C(O)C3COC(=O)C23)OCO4)cc(OC)c1OC (stereo unspecified) | inactive | active | inactive
CCNC(=O)[C@H]1O[C@@H](n2cnc3c(N)ncnc32)[C@H](O)[C@@H]1O | inactive | inactive | inactive
NNc1ccn([C@@H]2O[C@H](CO)[C@@H](O)[C@H]2O)c(=O)n1 | inactive | inactive | inactive
COC(=O)[C@@]1(Cc2ccccc2N=[N+]=[N-])N=C(c2ccc(OCCCO)cc2)O[C@H]1c1ccccc1N=[N+]=[N-] | active | inactive | inactive
CC(=O)N[C@H]1CCSC1=O | inactive | inactive | inactive
NC(=O)c1cc([N+](=O)[O-])cc([N+](=O)[O-])c1 | inactive | inactive | inactive

Compound | cytotoxicity call [1] | cytotoxicity call [2] | growth inhibition call [3]
O=c1[nH]c2ccccc2n1C1CCN(CCCC(c2ccc(F)cc2)c2ccc(F)cc2)CC1 | active | active | inactive
O=C1CCCC2C3CCCN4CCCC(CN12)C34 (stereo unspecified) | inactive | inactive | inactive
COC(=O)[C@@H]1C(=O)NC[C@H]1C(C)C | inactive | inactive | inactive
N[C@H]1CCCN(Cc2cccnc2)C1 | inactive | inactive | inactive
COCCCNC(=O)[C@H]1N[C@H]2C[C@@H]1C[C@@H]2F | inactive | inactive | inactive
C=CC1CN2CCC1CC2C(O)c1ccnc2ccccc12 (stereo unspecified) | inactive | inactive | inactive
Cn1cc(N2C[C@@H]3CN(CCO)C[C@@H]3C2=O)cn1 | inactive | inactive | inactive
C[C@@H]1CN([C@@H](C)CO)C(=O)c2c(c3ccccc3n2C)-c2ccccc2CO[C@@H]1CN(C)C(=O)Oc1ccccc1 | inactive | inactive | inactive
COc1ccc(N(C(=O)Oc2c(C)cccc2C)c2ccnc(Nc3ccc(N4CCN(C)CC4)cc3)n2)c(OC)c1 | inactive | inactive | inactive
CCN1C[C@]2(COC)CC[C@@H](OC)[C@@]34[C@@H]2[C@@H](OC)[C@@H]([C@@H]13)[C@]1(OC(C)=O)C[C@@H](OC)[C@@]2(O)C[C@H]4[C@@H]1[C@H]2OC(=O)c1ccc(OC)cc1 | inactive | inactive | inactive
CNC(=O)Oc1ccc2c(c1)C1(C)CCN(C)C1N2C.O=S(=O)(O)O (stereo unspecified) | inactive | active | inactive
CN1CC(CNC(=O)OCc2ccccc2)CC2c3cccc4c3c(cn4C)CC21 (stereo unspecified) | inactive | active | inactive
CCn1nc(-c2cccnc2)nc2c(=O)n(C)c(=O)nc1-2 | active | active | active
CNCC(=O)c1ccc(O)c(O)c1.Cl | inactive | inactive | inactive
NCC[C@H]1COc2ccccc2O1 | inactive | inactive | inactive
Cc1nc[nH]c1CCN | inactive | inactive | inactive
O=C(NN=Cc1ccc([N+](=O)[O-])o1)c1cc([N+](=O)[O-])cc([N+](=O)[O-])c1O | inactive | inactive | inactive
Cn1cc([C@@]23C[C@]2(C)COC3=O)cn1 | inactive | inactive | inactive
CC(C)C[C@H]1C(=O)N2CCC[C@H]2[C@]2(O)O[C@](NC(=O)[C@@H]3C=C4c5cccc6[nH]c(Br)c(c56)C[C@H]4N(C)C3)(C(C)C)C(=O)N12 | inactive | inactive | inactive
NCc1cc(=O)[nH]o1 | inactive | inactive | inactive
CC(C)(C)c1o[nH]c(=O)c1C[C@@H](N)C(=O)O | inactive | inactive | inactive
O=c1c(O)c(-c2ccc(O)c(O)c2)oc2c(O)c(O)cc(O)c12 | inactive | inactive | inactive
COC(=O)[C@@H](N)CCCNC(N)=N[N+](=O)[O-] | inactive | inactive | inactive
CN[C@@H]1[C@@H]2[C@H]3CCN2C[C@H]1O3 | inactive | inactive | inactive
O=[N+]([O-])c1cc(O)c(O)c([N+](=O)[O-])c1 | inactive | inactive | inactive
